Consider 82 molecules from publication PMC12040169 (PLOS Biology, 2025).

The other results are listed elsewhere or left out.

The subject of the assay is T1, C. trachomatis L2/434/Bu expressing GFP (CTL2-GFP).
T1 construct: L2/434/Bu GFP intracellular growth in HeLa cells
Set-up: species or system HeLa; C. trachomatis total inclusion area by high-content imaging, normalised to DMSO. The settings on record: total inclusion area; 28.5 h, 10 µM; inhibitor. A digest of the protocol:
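High-content images of fixed, Hoechst-stained infected cultures supply inclusion area and count (growth) plus nuclei number (viability), complementing bulk GFP/resorufin fluorescence. MIC determination is unchanged from the primary assay.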
Take `Cc1cnn(C)c1CN1CCC(C(N)=O)(N2CCCCC2)CC1` [CBK304400]: the “% of control remaining” value was found to be 49.9439.
To `COc1ccc(Cl)cc1NC(=O)CN(C1CCCCC1)S(C)(=O)=O` [CBK266720] belongs 117.767.
For the molecule `Cn1cc(C(=O)N2CCc3ccccc32)c2ccccc21` [CBK200407], the “% of control remaining” value was determined as 100.937.
Turning to `CN1CCN(c2c(C(=O)O)cc([N+](=O)[O-])cc2[N+](=O)[O-])CC1` [CBK261519], the “% of control remaining” value turned out to be 105.095.
Regarding `Cc1cc(I)cnc1NC(=O)CSc1ccc(Cl)cc1` [CBK266438], the “% of control remaining” value came out at 98.4573.
For `O=C(Nc1ccc(/C=C/c2ccccc2)cc1)c1ccc(COc2ccccc2)o1` [CBK267829], the “% of control remaining” value amounted to 91.364.
With `CCN(CC)C(=O)CN1C(=O)C2(Nc3ccccc3C(=O)N2c2ccc(C)cc2)c2ccccc21` (stereo not shown) [CBK093478], the “% of control remaining” value worked out at 72.4857.
Turning to `Cc1oc(NC(=O)CN2CCN(c3ccccn3)CC2)c(C#N)c1C` [CBK236456], the “% of control remaining” value is given as 37.7935.
To `CNCC1CCCN(Cc2cn(-c3ccc(Br)cc3)nc2C)C1` (stereo not shown) [CBK304301C] belongs 36.3736; to `O=C(Nc1cc2ccccc2c(N2CCNCC2)n1)c1cnccn1` [CBK036346T], 85.8522.
For `CC(c1nc2ccccc2[nH]1)N1CCC2(CC1)NCCc1c2[nH]c2ccccc12` (stereo not shown) [CBK040061] the value was 56.2668; for `Cc1ccc(S(=O)(=O)N=C2NCN(CCOC(=O)c3ccc([N+](=O)[O-])cc3)CN2)cc1` [CBK265235], 109.702.
Regarding `CSCCC(C(=O)O)N1C(=O)C(=Cc2ccc(-c3cc(Cl)cc(Cl)c3)o2)SC1=S` (stereo not shown) [CBK296984], the “% of control remaining” value is reported as 89.4262.
For `O=c1cc(-c2ccc(Br)cc2)nc2[nH]ccn12` [CBK016446] the value was 91.8625; for `O=S(=O)(Nc1ccc(N2CCCCC2)cc1)c1cccc2cccnc12` [CBK263077], 96.435; for `Cn1c(=O)n(C)c2cc(CN3CCN(C4CCCC4)C(=O)C3)ccc21` [CBK281909], 115.911.
For `CN(C(=O)OC(C)(C)C)C1CN(C(c2ccccc2)c2ccccc2)C1` [CBK008111], the “% of control remaining” value came out at 92.9366.
To `O=c1ccc2ccc(-c3cccc(OCc4ccccc4)c3)nc2[nH]1` [CBK073722] belongs 85.822; to `COC(=O)C1C2CCN(CC2)C1SCc1cccc(C(F)(F)F)c1` (stereo not shown) [CBK010829C], 95.1898.
As to `O=C(O)CC1Cn2ncc(-c3ccccc3)c2NC1=O` (stereo not shown) [CBK288187], the “% of control remaining” value is given as 99.9458.
In the case of `CCCC(=O)c1ccc2c(c1)CC(N(CCC)CCC)C2` (stereo not shown) [CBK023971C], the “% of control remaining” value came to 109.015.
To `Cc1cc(C2CCCCCN2Cc2c(C)nn(C)c2C)on1` (stereo not shown) [CBK282967] belongs 100.679; to `COc1cc(NS(=O)(=O)c2ccc(N/C=C3/CCc4ccccc4C3=O)cc2)nc(OC)n1` [CBK263376], 21.7838.
To `CCCc1cc(O)nc(SCC(=O)Nc2cc3c(cc2C(C)=O)OCO3)n1` [CBK266144] belongs 69.9444.
In the case of `Cc1nc(CNC(=O)c2nn(-c3cccc(C(C)C)c3)cc2O)no1` [CBK305269], the “% of control remaining” value turned out to be 71.0895.
To `COc1ccc(C2=NN(c3ccc([N+](=O)[O-])cc3)C(=O)/C2=C\c2cccc(OC)c2OC)cc1` [CBK264475] belongs 114.948.
To `O=C(Nc1ccccc1C(=O)NCCN1CCOCC1)c1cccs1` [CBK270077] belongs 97.8847.
Regarding `NS(=O)(=O)c1ccc(CCNC(=O)c2ccc(Cl)c([N+](=O)[O-])c2)cc1` [CBK264395], the “% of control remaining” value turned out to be 121.959.
For `CCN(CCc1nc2cc(OC)ccc2[nH]1)C(=O)c1ccc(=O)n(C)c1` [CBK307312], the “% of control remaining” value stood at 63.9654.
For `CCCC(=O)N1CCN(Cc2ccc3c(c2)OCO3)CC1` [CBK074367] the value was 106.866; for `COc1ccc(OC)c(NC(=O)c2cnc3scc(C)n3c2=O)c1` [CBK287462], 102.719.
For `COCC(=O)Nc1ccc(Cl)c(NC(=O)NCCN2CCCC2=O)c1` [CBK306663] the value was 79.6462.
As to `COc1cc2c(cc1OC)CN(CCO)CC2` [CBK138322], the “% of control remaining” value is on record as 97.7963.
Turning to `c1ccc(CCNc2nccnc2-c2ccncc2)nc1` [CBK037378], the “% of control remaining” value was 85.889.
To `O=C(CSc1nc2ccccc2s1)OCc1ccc([N+](=O)[O-])cc1` [CBK262547] belongs 101.264; to `COC(C(=O)NCc1sc(-c2ccccc2)nc1C)c1ccccc1` (stereo not shown) [CBK092362], 105.62.
For `COc1ccc(Cc2nc(C3CCC3)n(CC3COCCO3)n2)cc1` (stereo not shown) [CBK307378] the value was 72.4623; for `Cc1c(C(=O)N2CCC(c3c(C(=O)NC(C)C)sc4ccccc34)C2)[nH]c2ccccc12` (stereo not shown) [CBK285872], 92.6114.
In the case of `c1cncc(-c2cn3ccnc3c(NCC3CC3)n2)c1` [CBK036609], the “% of control remaining” value is given as 79.972.
For `CN(C)c1ccc(-c2nccnc2NS(=O)(=O)c2cccs2)cc1` [CBK050804], the “% of control remaining” value was 99.3788.
To `NC(=O)c1c(NC(=O)CSC2=NCCS2)sc2c1CCCC2` [CBK269989] belongs 95.0732; to `Cc1nnc(CN(CC2CCCO2)C2CCC(C)CC2)o1` (stereo not shown) [CBK304824], 87.1705; to `Nc1ncc(-c2cc(C(F)(F)F)cc(C(F)(F)F)c2)nc1N1CCN(CCO)CC1` [CBK063426], 61.2308.
For `Cc1cc(Cl)ccc1CNC(=O)C1=CC(=O)CC(C)(C)O1` [CBK153282] the value was 90.6673; for `Cc1ccc(CNc2c(-c3ccco3)nc3cnccn23)cc1` [CBK283693], 118.856.
To `N#C/N=C(/Nc1cccnc1)Oc1ccccc1` [CBK012612] belongs 53.7045.
With `COc1cc2c(cc1OC)CN(CCN1CCCCC1)CC2` [CBK126439], the “% of control remaining” value worked out at 117.151.
`O=C(c1ccccc1)N1CCCC(c2nnc(-c3cccs3)o2)C1` (stereo not shown) [CBK283059]: the “% of control remaining” value was found to be 60.4579.
On to `Nn1cnn2c(SCCSC3CCCCC3)nnc12` [CBK263192], for which the “% of control remaining” value is reported as 108.524.
For `Cc1ccc(S(=O)(=O)N(CC(=O)NCc2ccco2)c2cc(C)cc(C)c2)cc1` [CBK263982] the value was 102.227.
For `CCOc1ccc(NC(=O)N(Cc2cnn(C)c2)CC(C)C)cc1C#N` [CBK307636] the value was 19.2014; for `COc1ccccc1C(C)CN(C)C` (stereo not shown) [CBK011948C], 125.675.
`CCn1c(COc2ccc(C(=O)O)cc2)nc2ccccc21` [CBK267647]: the “% of control remaining” value was 106.424.
Consider `O=C1CC2(CCCC2)C(=O)N1CCNc1nccc(C(F)(F)F)n1` [CBK028777], for which the “% of control remaining” value is given as 82.0407.
To `CCOC(=O)C1CSCCN1C(=O)c1ccc(-c2cnco2)cc1` (stereo not shown) [CBK304208] belongs 54.4014; to `CCCOc1ccc(C(=O)NCc2ccccn2)cc1` [CBK269789], 94.37; to `CCc1cc(CNC(=O)C(c2ccc(F)cc2)N(C)C)on1` (stereo not shown) [CBK281648], 110.962.
In the case of `CC(=O)CCc1cc(CCC(N)=O)on1` [CBK023350], the “% of control remaining” value was 122.809.
With `CCCn1c(-c2ccccc2OC(F)(F)F)n[nH]c1=O` [CBK074238], the “% of control remaining” value was determined as 104.985.
To `NC(=O)CCNC(=O)C1(c2ccccc2)CCCC1` [CBK160929] belongs 109.47; to `CC(C)c1ccc(/C=C2\CCCc3c2nc2ccccc2c3C(=O)O)cc1` [CBK299777], 74.8784.
To `O=C(NCc1ccc(OC2CCNCC2)cc1)c1ccccn1` [CBK036361T] belongs 113.566.
On to `CSc1ncc(CNCc2ccc3c(c2)OCO3)c(N)n1` [CBK074563], for which the “% of control remaining” value stood at 79.5547.
To `CCn1ncc(CN[C@@H]2CCC(=O)N[C@H]2c2cc(F)cc(F)c2)c1C` [CBK282914] belongs 114.447; to `CN(C)CC(C)(C)CNC(=O)c1cnc2cc(Cl)ccc2c1O` [CBK107357], 100.31; to `CCOC(=O)c1c(NC(=O)CCN2C(=O)c3cccc4cccc(c34)C2=O)sc2c1CCC2` [CBK262982], 90.8173.
With `Cc1ccccc1/N=C1/NC(=O)/C(=C/c2ccc([N+](=O)[O-])o2)S1` [CBK094584], the “% of control remaining” value turned out to be 111.193.
For `O=C(O)c1ccc(-n2nnnc2SCc2ccc(F)cc2)cc1` [CBK287229] the value was 94.9549; for `CCc1c(C(=O)Nc2ccc(C(F)(F)F)cc2)cnc2ncnn12` [CBK291244], 115.524; for `Cc1nonc1NC(=O)CSc1nc2cc(Cl)ccc2[nH]1` [CBK270095], 108.175.
For `COc1cccc(CN(C)CCN(C)C)c1O` [CBK261905] the value was 98.4118.
To `Cc1ccc(-c2cc(C(=O)Nc3ccc(S(=O)(=O)Nc4nccs4)cc3)c3ccccc3n2)c(C)c1` [CBK262638] belongs 86.1695.
In the case of `COCCN(C(=O)c1ccc2ccccc2c1)C1CCS(=O)(=O)C1` (stereo not shown) [CBK305758], the “% of control remaining” value was found to be 38.3146.
On to `CCOc1ccccc1NC(=O)Nc1ncccc1C` [CBK267140], for which the “% of control remaining” value was 125.542.
For `c1coc(CNc2c(-c3ccco3)nc3cnccn23)c1` [CBK283496] the value was 103.635; for `CC[C@H]1CN(C(=O)c2ccnc(Cl)c2)CC[C@H]1CC(=O)NCc1ccc2c(c1)OCO2` [CBK289137], 91.4076.
Turning to `COc1ccc(C(=O)/C=C/c2cccs2)c(OC(=O)c2ccc([N+](=O)[O-])cc2)c1` [CBK264926], the “% of control remaining” value worked out at 107.607.
To `CC(=O)NCCSc1cc(C(F)(F)F)ccn1` [CBK105297] belongs 87.872; to `COc1ccc(OC)c(-n2nnnc2SCC2CCCN(C)C2)c1` (stereo not shown) [CBK305386], 87.2557.
As for `Cc1ccc(SCC(=O)Nc2ccc(O)cc2C(=O)O)cc1` [CBK131703], the “% of control remaining” value was 99.8294.
In the case of `O=C(O)c1cccc(S(=O)(=O)Nc2nc3ccc(Cl)cc3s2)c1` [CBK299793], the “% of control remaining” value is 105.669.
For the molecule `c1coc(CNc2c(-c3cccs3)nc3cnccn23)c1` [CBK283540], the “% of control remaining” value is 100.596.
